Hit rate of the full screen: of about 48,000 compounds, about 550 (1.1%) were called active. Inconclusive results (about 4%) are left out. Cut-off read from the data, not from the text of the source: active = potency below about 15 µM; inconclusive = mostly about 16 µM to 33 µM; inactive = weaker than that. Some of the results follow.
Potency is the fitted concentration of half-maximal effect.

Chain of UniProt P04062 (P04062 whole entry, looked up): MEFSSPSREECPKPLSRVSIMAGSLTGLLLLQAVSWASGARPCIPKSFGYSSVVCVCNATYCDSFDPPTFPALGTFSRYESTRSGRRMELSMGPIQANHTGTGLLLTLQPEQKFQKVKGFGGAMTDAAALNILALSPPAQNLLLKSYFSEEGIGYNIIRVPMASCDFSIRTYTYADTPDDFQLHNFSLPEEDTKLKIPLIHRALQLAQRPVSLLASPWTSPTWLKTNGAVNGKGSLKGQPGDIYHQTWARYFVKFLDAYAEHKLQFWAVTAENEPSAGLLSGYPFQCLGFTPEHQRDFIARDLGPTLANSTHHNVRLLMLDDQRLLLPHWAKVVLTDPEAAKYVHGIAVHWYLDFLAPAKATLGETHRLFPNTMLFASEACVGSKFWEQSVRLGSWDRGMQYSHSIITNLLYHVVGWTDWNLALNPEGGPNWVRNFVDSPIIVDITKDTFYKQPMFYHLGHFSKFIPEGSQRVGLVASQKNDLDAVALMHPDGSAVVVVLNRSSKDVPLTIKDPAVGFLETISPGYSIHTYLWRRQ

In this experiment the target is Lysosomal acid glucosylceramidase (Homo sapiens) (UniProt P04062). Kind of experiment: Glucocerebrosidase.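 Note: the screen sought inhibitors.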 As to conditions: purified enzyme, resorufin glucoside fluorescence (screen aimed at inhibitors), 20 min. The method, boiled down:
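Normal human glucocerebrosidase (0.2 nM final) was assayed with resorufin β-D-glucopyranoside (30 uM final) in 50mM citric acid/KH2PO4, 10mM sodium taurocholate, 0.01% tween-20, pH 5.9. Compounds were titrated; fluorescence (Ex 548, Em 600) read after 20 min at RT.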
As for `Cc1cc2n(n1)C(c1ccccc1)Nc1ccccc1-2` (stereo not given), the Potency was inactive: > 76.9 µM. Regarding `CCOC(=O)N1CCN(CC(O)COC2CC(C)CC(C)(C)C2)CC1` (stereo not given), the Potency is inactive: > 76.9 µM. As for `CC(=O)OC[C@H]1O[C@@H](n2ccc(=O)[nH]c2=S)C(OC(C)=O)C1OC(C)=O` (stereo not given in full), the figure is inactive: > 76.9 µM.

Consider `Cc1ccc(S(=O)(=O)NC2=NCN(CCc3ccccc3)CN2)cc1`, for which the Potency was inactive: > 76.9 µM. The value for `c1ccc2sc(Cc3nnc4n3CCCCC4)nc2c1` was inactive: > 76.9 µM; that for `COc1cc2c(cc1NC(=O)c1cccnc1)CCCC2` was inactive: > 76.9 µM; that for `CSc1nc(SCC(=O)NCc2ccco2)c2c3c(sc2n1)COC(C)(C)C3` was inactive: > 76.9 µM. The value for `O=C(CCCN1C(=O)c2ccccc2C1=O)NC1=NCCS1` was inactive: > 76.9 µM; that for `N#Cc1c(NC(=O)CSc2ncn[nH]2)sc2c1CCCCC2` was inactive: > 76.9 µM. As for `CCc1nnc(NC(=O)c2cccc(S(=O)(=O)N3CCc4ccccc43)c2)s1`, the figure is inactive: > 76.9 µM; as for `O=C(NCC1CCCO1)c1cc2n(n1)C(C(F)(F)F)CC(c1ccc(Br)cc1)N2` (stereo not given), inactive: > 76.9 µM. On to `COC(=O)c1cc(Cl)c(N)cc1OC`, for which the Potency is inactive: > 76.9 µM. The value for `O=C(OC(C(=O)NCC1CCCO1)c1ccccn1)c1cccs1` (stereo not given) was inactive: > 76.9 µM; that for `CCN(C(=O)c1c(-c2ccccc2)noc1C)c1ccccc1` was inactive: > 76.9 µM; that for `CCc1cc2c(C)cc(=O)oc2cc1OC(=O)C1CCCN1C(=O)OC(C)(C)C` (stereo not given) was inactive: > 76.9 µM. As for `Cc1nc2ccccc2n1CCc1nc2c3ccccc3nc(SCC(=O)NCc3ccco3)n2n1`, the figure is inactive: > 76.9 µM; as for `O=C(COC(=O)c1cccs1)NC1CCCCC1`, inactive: > 76.9 µM. As for `COc1cc(NC(=O)c2ccc(COCC(F)(F)F)o2)cc(OC)c1OC`, the figure is inactive: > 76.9 µM; as for `CC(=O)N=c1sc2cc(C)ccc2n1C`, inactive: > 76.9 µM. As to `CCCCN1c2cc(C)c(O)cc2C(C(=O)OCC)C1C` (stereo not given), the Potency is inactive: > 76.9 µM.

Consider `Cc1cc(NS(=O)(=O)c2ccc(NC(=O)NC3CCCCC3)cc2)no1`, for which the Potency is inactive: > 76.9 µM.

In the case of `O=C(CN1CCCC1)N1c2ccccc2Sc2ccccc21`, the Potency is inactive: > 76.9 µM.

`C=CCOC(=O)C(C#N)c1nc2ccccc2nc1N1CCN(c2ccccc2OC)CC1` (stereo not given): the Potency is inactive: > 76.9 µM. On to `N#Cc1c(N)oc(-c2ccco2)c1-c1ccco1`, for which the Potency is inactive: > 76.9 µM.

For the compound `COc1ccc(-c2nnc(SCC(=O)N3CCCC(C)C3)o2)c(OC)c1` (stereo not given), the Potency is inactive: > 76.9 µM. Regarding `CCn1c(SCC(=O)Nc2nccs2)nnc1-c1ccc(S(=O)(=O)N2CCCCC2)cc1`, the Potency was inactive: > 76.9 µM.

Turning to `Cc1nn(-c2ccccn2)c(C)c1Oc1ccccc1O`, the Potency was inactive: > 76.9 µM. The value for `CC(Cc1cccs1)NC(=O)NC1CCCCC1` (stereo not given) was inactive: > 76.9 µM; that for `CCOC(=O)CCc1c(C)nc(SCC(=O)O)c(C#N)c1C` was inactive: > 76.9 µM. The value for `COC(=O)c1ccc2ncccc2c1` was inactive: > 76.9 µM; that for `CCC(=O)N1CCc2cc(Br)cc(S(=O)(=O)NCC3CCCO3)c21` (stereo not given) was inactive: > 76.9 µM; that for `O=C(NC1CCCCC1)N1CCC(c2nc3ccc(Cl)cc3[nH]2)CC1` was “inactive”.

Consider `COCCN1Cc2c(sc(C)c2C)N(C(=O)c2ccccc2)C1`, for which the Potency was inactive: > 76.9 µM. Take `CCn1nc(C(=O)N2CCc3ccccc3C2)c2ccccc2c1=O`: the Potency was inactive: > 76.9 µM. The value for `COCCCn1c(=N)c(C(=O)NCc2ccc3c(c2)OCO3)cc2c(=O)n3ccccc3nc21` was inactive: > 76.9 µM; that for `CSCCNC(=O)c1ccc(C(C)(C)C)cc1` was inactive: > 76.9 µM; that for `CCCOC(=O)CCCCC1SCC(NC(=O)OC)C1NC(=O)OC` (stereo not given) was inactive: > 76.9 µM.

As for `O=C1OC(N2CCN(Cc3ccccc3)CC2)c2ccccc21` (stereo not given), the Potency was inactive: > 76.9 µM.

For the compound `COC(=O)c1cc(NC(=O)c2ccc(Cn3cc(Cl)cn3)o2)cc(C(=O)OC)c1`, the Potency was inactive: > 76.9 µM.

As for `Cn1nnnc1SCCOc1ccc(C#N)cc1`, the Potency was inactive: > 76.9 µM. The value for `CCOC(=O)C1CCCN(c2ccc(NC(=O)c3snc4c(=O)[nH]cnc34)cc2)C1` (stereo not given) was inactive: > 76.9 µM; that for `O=C(Nc1cccc2cccnc12)c1cccc(N2C(=O)CCC2=O)c1` was inactive: > 76.9 µM. As for `CCCn1nc(NC(=O)c2ccco2)c2cc3ccc(C)cc3nc21`, the Potency was inactive: > 76.9 µM. Consider `O=C(C1CCN(S(=O)(=O)c2ccc(Br)s2)CC1)N1CCc2ccccc21`, for which the Potency was inactive: > 76.9 µM. As to `COc1ccccc1N1CCN(C(=O)c2cn(-c3ccccc3)nc2-c2cccnc2)CC1`, the Potency is inactive: > 76.9 µM. As for `O=C(CSc1nnc(Cc2ccccc2)n1-c1ccc(F)cc1)N1CCOCC1`, the figure is inactive: > 76.9 µM. As for `COc1cccc(-c2nnn(CC(=O)O)n2)c1`, the figure is inactive: > 76.9 µM; as for `Cc1nn(C)c(N)c1C(O)(c1nccn1C)C(F)(F)F` (stereo not given), inactive: > 76.9 µM; as for `CCn1cc(C(=O)NC2CC3CCC2C3)c(=O)c2ccc(C)nc21` (stereo not given), “inactive”. As for `COc1ccc(-c2cc(C(F)F)nc(-n3nc(C)cc3C)n2)cc1`, the figure is inactive: > 76.9 µM. With `COc1ccc(CNC(=O)C2CCN(S(=O)(=O)c3c(C)n[nH]c3C)CC2)cc1`, the Potency is inactive: > 76.9 µM. Take `CCOC(=O)CCNC(=O)Nc1ccc2nc(C)n(Cc3ccccc3Cl)c(=O)c2c1`: the Potency is inactive: > 76.9 µM. As to `O=c1[nH]c2sc3c(c2c2nncn12)CCCC3`, the Potency result was “inactive”. With `CC(C)(C#N)NC(=O)c1ccco1`, the Potency was inactive: > 76.9 µM. The value for `COC(=O)CSc1nnc(-c2ccc(S(=O)(=O)N3CCCCC3)cc2)o1` was inactive: > 76.9 µM. Consider `CCCn1nnc(NC(=O)c2ccco2)n1`, for which the Potency is inactive: > 76.9 µM.

Take `CC1CCc2nc(NCCO)nc(C(F)(F)F)c2C1` (stereo not given): the Potency was inactive: > 76.9 µM.

Consider `Cc1ccc(NC(=O)NCCCN2CCOCC2)cc1`, for which the Potency was inactive: > 76.9 µM. The value for `Cc1noc(C)c1CSc1nnc(-c2ccncc2)n1-c1cccc(Cl)c1C` was inactive: > 76.9 µM.

As to `O=S(=O)(c1ccc(-n2cnnn2)cc1)N(C1CCCCC1)C1CCCCC1`, the Potency result is “inactive”.

The values are drawn from PubChem BioAssay AID360 (National Center for Advancing Translational Sciences (NCATS), 2006).
